The campaign covered roughly 360,000 compounds. About 7,500 (2.1%) were called active. The inconclusive results got no clear call from the source; some entries with a clear call stand among them for comparison. Calls come from the whole dose curve; as a rule, active = well fitted cell-killing curve with a large enough effect; inconclusive = small, poorly fitted or top-dose-only effect, or effect the other way, or another doubt; inactive = no such curve, though single readings can be large or run the other way. No potency is given beside an inconclusive call; the fits are too rough.
assay: qHTS for induction of synthetic lethality in tumor cells producing 2HG: qHTS for the HT-1080-IDH1KD cell line; details: HT-1080 IDH1 knockdown viability, ATP luminescence, 48 h; series mostly up to 46.1 µM
Procedure, shortened: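 % activity derives from luminescence (CellTiter-Glo), normalised to DMSO and no-cell wells. HT-1080-IDH1KD cells, 750/well, had 48 h compound exposure at 37 °C.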
Potency is the fitted concentration of half-maximal effect; tags give direction and shape of the fitted curve.

Compound	Potency
N#CC1c2ccccc2C=CN1C(=O)N(c1ccccc1)c1ccccc1 (stereo not drawn)	inconclusive [cytotoxic, single point]
COCCCNC(=O)c1c[nH]c2ccc(S(=O)(=O)N3CCc4ccccc43)cc2c1=O	inconclusive [cytotoxic, partial curve]
COc1ccc(/C=C/C(=O)c2ccc([N+](=O)[O-])o2)cc1	active: 18.4 µM
COc1ccc(-c2nc(-c3ccc(O)cc3O)cs2)cc1OC	inconclusive [cytotoxic, partial curve]
Cc1nc2cc(C(F)(F)F)ccc2n1CCNc1nc(-c2ccc([N+](=O)[O-])c(Cl)c2)cs1	inconclusive [cytotoxic, single point]
CC(=O)Nc1nc2ccccc2n1Cc1ccccc1C	inconclusive [cytotoxic, single point]
Nc1c(C(=O)Nc2nc3ccccc3s2)sc2nc(-c3cccs3)ccc12	active: 18.4 µM
Cc1c(NC(=S)NC(=O)c2sc3ccccc3c2Cl)cccc1C(=O)O	inactive
Cc1cc(/C=C2/SC(=S)N(c3cccc(C(F)(F)F)c3)C2=O)c(C)n1-c1cccnc1	inconclusive [cytotoxic, single point]
CN(C)c1ncnc2c1nnn2C1OC(CO)C(O)C1O (stereo not drawn)	active: 0.461 µM
CCCc1nc2ccccc2c(C(=O)OCC(=O)Nc2c(C)n(C)n(-c3ccccc3)c2=O)c1CC	inactive
Cc1cc(C(=O)CSc2nc(N)cc(=O)[nH]2)c(C)n1-c1ccc(OC(F)F)cc1	inconclusive [cytotoxic, partial curve]
COc1ccc(C2=NCC(CSc3nnnn3C)S2)cc1 (stereo not drawn)	inconclusive [cytotoxic, single point]
COc1ccc2[nH]cc(CCNS(=O)(=O)c3ccc(C)cc3)c2c1	inactive
COc1ccccc1N1CCN(c2ccc(-c3ccccc3)nn2)CC1	inconclusive [cytotoxic, full curve]
CC(C)(C)c1ccc(/C=C2/SC(N3CCCC3)=NC2=O)cc1	active: 18.4 µM
Cc1ccc(Cn2c(=N)n(CC(O)c3ccco3)c3ccccc32)cc1 (stereo not drawn)	inconclusive [cytotoxic, partial curve]
Cc1ccc(NC(=O)CN2C(=O)NC3(CCC(C)CC3)C2=O)c(Cl)c1 (stereo not drawn)	inconclusive [cytotoxic, single point]
Cc1ccc(C)c(OCC(O)CN2CCc3ccccc3C2)c1C (stereo not drawn)	active: 9.2 µM
Cc1cc(C)cc(OCc2nc3ncc(Br)cc3[nH]2)c1	inconclusive [cytotoxic, full curve]
Cc1ccc(-n2nc3c(c2NC(=O)C(C)(C)C)CSC3)c(C)c1	inconclusive [cytotoxic, single point]
CCC1(c2ccc(Cl)cc2)NC(=O)N(Cc2ccc(C(=O)OC)cc2)C1=O (stereo not drawn)	inconclusive [cytotoxic, partial curve, poor fit]
O=C1NC[C@H](CCCCN2C[C@H](Cc3ccc(O)cc3)N(CC3CCCCC3)C(=O)C2=O)N(CCC2CCCCC2)C1=O	inconclusive [cytotoxic, single point]
CC(O)CN1C(=O)C(CC(=O)Nc2ccc(Cl)cc2)SC1=Nc1ccccc1 (stereo not drawn)	inconclusive [cytotoxic, single point]
COc1ccc(-c2nc3ccc(Br)cn3c2Cc2ccccc2)cc1OC	inconclusive [cytotoxic, single point]

Compound	Potency
O=C(Nc1ccc(F)cc1F)Nc1csc2ccccc12	inconclusive [cytotoxic, single point]
Cc1ccc2nc(CSc3nc(C)ccc3C#N)[nH]c2c1	active: 15.8 µM
CC(C)CCNC(=O)C(C)N(Cc1ccc(F)cc1)C(=O)c1ccc(CN2CCOCC2)o1 (stereo not drawn)	inactive
CCOC(=O)C1CCCCN1Cc1cc(OC)ccc1OC (stereo not drawn)	inconclusive [rising, single point]
CCSc1nnc(-c2sc3nnc(-c4ccccc4)c(-c4ccccc4)c3c2N)o1	inactive
COc1cc(/C=C/c2ccc3cccc(O)c3n2)cc(Cl)c1OC	inconclusive [cytotoxic, partial curve]
CCN(Cc1ccccc1)S(=O)(=O)c1ccc(C(=O)N(CCCN(C)C)c2nc3cc(C)cc(C)c3s2)cc1	active: 23.1 µM
COc1ccc(C2=NOC(Cn3nc(C(=O)NCc4cccc(C(F)(F)F)c4)cc3-c3ccccc3)C2)cc1 (stereo not drawn)	inactive
C/C(=C\C(=S)Nc1ccccc1)Nc1ccccc1	inactive
Cc1cc(N/N=C/c2ccc(Cl)cc2Cl)nc(NCc2ccccc2)n1	inconclusive [cytotoxic, single point]
CN(C)CCN1C(=O)c2cccc3cc([N+](=O)[O-])cc(c23)C1=O	active: 13 µM
COc1ccc(/C=N/NC(=O)CCn2c3ccccc3c3ccccc32)cc1OC	inactive
Cc1ccc(SCC(=O)Nc2nnc(C(C)(C)C)s2)cc1	inactive
Cc1ccc(/C(N)=N/OC(=O)c2cccc(Cn3cc(C(F)(F)F)ccc3=O)c2)cc1	inconclusive [cytotoxic, single point]
Cc1ccc(-c2ccc(C(=O)Nc3ccccc3)o2)c2ccccc12	inactive
CC1CCN(c2c(NCc3ccc(C(=O)N4c5ccccc5CC4C)cc3)c(=O)c2=O)CC1 (stereo not drawn)	inactive
Cc1cc(C)nc(SCc2ccc(C(=O)N/N=C/c3cccc(O)c3O)cc2)n1	active: 2.31 µM
CCOc1ccc(N(CC(=O)NCCc2ccccc2)C(=O)CCC(=O)Nc2cc(C)ccn2)cc1	inactive
Cc1ccc(-c2cc(NC=O)c3ncc(-c4cccc(C(=O)N(C)C)c4)n3c2)cc1	inconclusive [cytotoxic, partial curve]
C=CCn1c(SCc2c(C)noc2C)nc2cc(C(=O)O)ccc2c1=O	active: 7.08 µM
NC(N)=NN=C(c1ccc(F)cc1)c1ccc(C(F)(F)F)cc1	active: 7.31 µM
CCn1c(SCC(=O)c2[nH]c(C)c(C(C)=O)c2C)nnc1-c1ccccc1	active: 16.4 µM
O=C(NNC(=O)c1cccs1)c1ccccn1	inconclusive [cytotoxic, single point]
Cc1nn(CC(=O)N2CCC(C(N)=O)CC2)c(=O)c2nn(-c3ccccc3)c(C)c12	inactive
Cc1cccc(N2CCN(C(=O)C3CCN(S(=O)(=O)N4CCOCC4)CC3)CC2C)c1 (stereo not drawn)	inactive

Compound	Potency
CCCc1nnc(NC(=O)c2nc(S(=O)(=O)Cc3cccc(C)c3)ncc2Cl)s1	inconclusive [cytotoxic, partial curve]
CC(=O)Nc1ccc(/C(C)=N/Nc2nc(Nc3ccccc3)nc(N3CCOCC3)n2)cc1	inconclusive [cytotoxic, single point]
Cc1ccc(F)c(S(=O)(=O)NC(=O)C2(C)CCN2C(=O)C2(c3ccc(Cl)cc3)CC2)c1 (stereo not drawn)	inactive
C[C@H](c1ccccc1)N1C[C@H](COCc2ccccc2)Oc2cc(N3CC[C@H](O)C3)ccc2S1(=O)=O	inconclusive [cytotoxic, single point]
O=C1C=CN(C2OC(CO)C(O)C2O)C(=O)C1 (stereo not drawn)	inconclusive [cytotoxic, single point]
CS(=O)(=O)N(Cc1ccccc1)c1ccc(C(=O)Nc2ccccc2C(=O)O)cc1	inactive
COc1ccc(Oc2ccc(/C=C/C(=O)c3cccc(OC)c3)cc2[N+](=O)[O-])cc1	inconclusive [cytotoxic, single point]
Oc1ccc(/C=N/NC(=S)N2CCOCC2)cc1	inconclusive [cytotoxic, partial curve]
CN1CCN(S(=O)(=O)c2ccc(NC(=O)c3ccc(Br)s3)cc2)CC1	inconclusive [cytotoxic, single point]
O=C(Cn1cnc2cc([N+](=O)[O-])ccc2c1=O)Nc1cccc(S(=O)(=O)N2CCOCC2)c1	inconclusive [cytotoxic, single point]
CCOC(=O)C(C)/C(C)=N/NC(=O)c1cc2ccccc2cc1O (stereo not drawn)	inconclusive [cytotoxic, single point]
CCCCN1C(=O)C(CC(=O)NCC)SC1=Nc1ccccc1 (stereo not drawn)	inactive
COc1ccccc1/C=C/C(=O)c1cc(Br)ccc1OC(=O)c1ccco1	active: 20.6 µM
CCOC(=O)C(C(=O)OCC)C(C)C#CCN1CCCCC1 (stereo not drawn)	inactive
COc1cccc(CNc2nc3ccccc3n2CCN2CCCCC2)c1	inconclusive [cytotoxic, single point]
CCOC(=O)N1CCC(NC(=O)c2ccc3c(c2)N=C(CC)c2ccccc2S3)CC1	inconclusive [cytotoxic, single point]
CCOC(=O)c1sc2nc(NC(=O)COc3ccccc3)sc2c1C	inactive
COc1cccc(O)c1CN1CCC(C(=O)Nc2ccc(-c3cccc(C)c3)cc2)CC1	active: 18.4 µM
CCOc1ccccc1NC(=O)C(OC(=O)c1ccc(O)cc1)c1ccccc1 (stereo not drawn)	active: 23.1 µM
Cc1nnc(-c2ccccc2)nc1N(C)C	inactive
CCCSC(=S)NC1CCS(=O)(=O)C1 (stereo not drawn)	inconclusive [cytotoxic, partial curve]
CC(OC(=O)/C=C/c1ccc2ccccc2n1)C(=O)Nc1ccc(S(N)(=O)=O)cc1 (stereo not drawn)	inconclusive [cytotoxic, partial curve]
CCc1ccc(CN(C)CC(O)COc2cccc3ccccc23)cc1 (stereo not drawn)	inconclusive [cytotoxic, single point]

Source: PubChem BioAssay AID686971 (National Center for Advancing Translational Sciences (NCATS), 2013)
